Experimental data as given in PubChem BioAssay AID485344 (National Center for Advancing Translational Sciences (NCATS), 2010).
The whole screen tested about 340,000 compounds, of which about 6,900 (2%) were called active. Rule as the data show it: active = inhibition above about 30%; inactive = below that, where a call was filed. Only a part is listed here, and it is no random draw. Entries without a call were filed so in the source.

Biological target: D(2) dopamine receptor (Homo sapiens) (UniProt P14416)
UniProt P14416, sequence (P14416 whole entry, looked up): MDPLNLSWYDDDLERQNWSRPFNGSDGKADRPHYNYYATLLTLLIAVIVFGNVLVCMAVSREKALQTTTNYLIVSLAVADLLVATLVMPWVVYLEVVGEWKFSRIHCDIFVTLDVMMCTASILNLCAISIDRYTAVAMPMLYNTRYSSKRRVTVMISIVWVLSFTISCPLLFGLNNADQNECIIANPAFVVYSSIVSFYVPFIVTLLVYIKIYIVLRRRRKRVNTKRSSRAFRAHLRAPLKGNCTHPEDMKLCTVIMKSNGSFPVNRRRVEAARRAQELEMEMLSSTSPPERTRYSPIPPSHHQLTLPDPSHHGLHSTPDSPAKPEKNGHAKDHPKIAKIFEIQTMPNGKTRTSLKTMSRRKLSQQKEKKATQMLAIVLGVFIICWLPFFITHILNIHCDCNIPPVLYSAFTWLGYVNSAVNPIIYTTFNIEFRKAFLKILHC
Test: HTS Assay for Allosteric Antagonists of the Human D2 Dopamine Receptor: Primary Screen for Antagonists; also: 0% is about no effect
Details: HEK293 TREx D2 cells, calcium flux, dopamine EC80; at 10 µM; stronger effect = higher value
Method in brief: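 Tetracycline-induced HEK293 TREx cells expressing D2 receptor forced-coupled to calcium signalling, loaded with no-wash calcium dye. Compounds added and calcium flux read 180 s, then dopamine added at EC80 and read a further 180 s.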

SMILES	inhibition
Cc1cccc(NC(=O)CCc2c(C)nc3c(c(C)nn3C(C)(C)C)c2C)c1C	-8.08%
CC1CCc2c(sc3nnn(CC(=O)Nc4ccc(Cl)cc4)c(=O)c23)C1 (stereo not drawn)	-1.39%
Cc1ccc(N2CCN(S(=O)(=O)c3ccc4[nH]c5c(c4c3)CCCCC5)CC2)c(C)c1	12%
CCN(C(=O)c1cn(CC)c(=O)c2cc(OC)c(OC)cc12)c1ccc(C)c(C)c1	13.2%
COc1ccc(CNC(=O)c2cnc(N3CCOCC3)c3ccccc23)cc1	-3.84%
Cc1ccc(Cl)cc1N1CCN(C(=O)c2cc3c(-c4ccccc4F)nn(C)c3s2)CC1	-0.372%
CCc1ccc2oc(-c3cc(NC(=O)c4cc([N+](=O)[O-])ccc4N4CCOCC4)ccc3Cl)nc2c1	3.14%
CCCN(CCC)C(=O)Cn1c(=O)n(-c2ccc(Cl)cc2)c(=O)c2c3c(sc21)CCCC3	-6.29%
COc1ccc(NC(=O)CSc2nc(-c3ccco3)cc(C(F)(F)F)n2)cc1Cl	16.4%
Fc1ccc(-c2cn3cc(Cc4ccccc4)sc3n2)cc1	9.37%
CCCCS(=O)(=O)c1nc(-c2ccc(Br)cc2)cc(-c2ccccc2)c1C#N	3.65%
Cc1oc(-c2cccc(Cl)c2)nc1Cn1c(SCc2ccccc2F)nc2ccncc21	13.3%
Cc1cc(C)cc(NC(=O)Cn2c(C(F)(F)F)nc3ccccc32)c1	-6.2%
Cc1ccccc1NC(=O)CSc1nnc(-c2cccs2)o1	17.1%
CC(=O)N1CCc2cc(C(=O)CN3CCN(c4cccc(Cl)c4)CC3)ccc21	active: 73%
COc1ccccc1NC(=O)CSC1=Nc2ccccc2C2=NC(CC(=O)NCc3cccs3)C(=O)N12 (stereo not drawn)	0.197%
COc1ccc(CCNC(=O)c2ccc3c(c2)N(Cc2ccccc2C)C(=O)c2ccccc2S3)cc1OC	-9.16%
Cc1nn(CC(=O)N2CCN(c3cccc(C(F)(F)F)c3)CC2)c(=O)c2cccn12	4.91%
Cc1nn(C)c2c1c(C(F)(F)F)cc(=O)n2C(C)C(=O)NCc1ccccc1Cl (stereo not drawn)	2.6%
Cc1cc(NC(=O)c2cc(-c3cccs3)nc3ccccc23)no1	active: 37.3%
COc1ccc(CNC(=O)c2ccc(CNS(=O)(=O)c3ccc(F)cc3)cc2)cc1	-10.2%
CCOc1ccc(OCC)c(NC(=O)Nc2ccc3c(c2)N(C)C(=O)CS3)c1	active: 64.2%
COC(=O)c1sccc1S(=O)(=O)N(CC(=O)NCc1ccc(F)cc1)c1ccc(Cl)cc1	18.8%
Cc1ccc(NC(=O)Cn2nnc(C(=O)NCc3cccs3)c2N)cc1Cl	5.05%

SMILES	inhibition
COc1ccc(Cn2nnc3c(=O)[nH]c(C4CCN(C(=O)c5ccc(C)cc5)CC4)nc32)cc1OC	-2.04%
COc1ccc(NC(=O)Cn2c(=O)n(Cc3ccc(C(=O)NCc4ccccc4Cl)cc3)c(=O)c3ccccc32)cc1	15.3%
O=C(CCN1CCN(c2ccc(F)cc2)CC1)Nc1ccccc1F	active: 65.4%
Cc1cc(F)ccc1NC(=O)Cn1c(=O)ccc2cc(S(=O)(=O)N3CCC(C)CC3)ccc21	-18.9%
CCN(CC)CCCNC(=O)CN1N=C(c2ccccc2)CCC1=O	10.1%
Cc1ccc(NC(=O)C2CCCN2S(=O)(=O)c2ccc3c(c2)CCCC(=O)N3)cc1Cl (stereo not drawn)	6.34%
Cc1cccc(NC(=O)CSc2nc3ccc(NC(=O)COc4ccccc4F)cc3s2)c1	1.25%
Cc1ccc(NC(=O)C(C)[n+]2ccccc2)cc1[N+](=O)[O-] (stereo not drawn)	active: 59.9%
O=C(CSc1ccc2nc(-c3ccccc3)cn2n1)Nc1cccc(F)c1	-8.08%
COc1ccc(NC(=O)c2c(NC(=O)Cc3ccccc3)sc3c2CCCC3)cc1	-11.3%
O=C1CC(N2CCN(c3ccccc3)CC2)C(=O)N1c1ccc2c(c1)OCCO2 (stereo not drawn)	active: 37.9%
CC1=C(C(=O)Nc2ccc(Cl)cc2)C(c2ccc(C(F)(F)F)cc2)n2nnnc2N1 (stereo not drawn)	-12.3%
CCOC(=O)c1c(C)sc(-c2c(-c3ccc(OC)c(F)c3)[nH]c3[nH]c(=O)[nH]c(=O)c23)c1O	-5.06%
COC(=O)c1cnn(-c2ccc(C(=O)Nc3cc(OC)c(OC)c(OC)c3)cc2)c1N	-6.61%
COc1ccc(-c2nc(SCC(=O)N3CCCCC3C)n[nH]2)cc1 (stereo not drawn)	-9.33%
CCc1cccc(C)c1Nc1c(-c2cccc(O)c2)nc2nc(C)cc(C)n12	-12.1%
Cc1ccc(CN(Cc2ccco2)C(=O)c2ccc(Cl)cc2)o1	23.6%
CCc1ccc(-n2c(=O)c3c(C)c(C(=O)N(C)C)sc3n(Cc3ccccc3C#N)c2=O)cc1	8.47%
CCc1ccccc1NC(=O)CSc1ncc(S(=O)(=O)c2ccc(C(C)C)cc2)c(N)n1	-19.2%
COc1ccc(NC(=O)CSc2nccn2Cc2ccco2)c(OC)c1	4.25%
CCC1CCCCN1C(=O)Cn1c(=O)cc(C(F)(F)F)c2c(C)nn(C)c21 (stereo not drawn)	-2.85%
O=C1c2[nH]nc(-c3ccccc3O)c2C(c2ccc(F)cc2)N1CCO (stereo not drawn)	2.2%
COc1ccc(OC)c(NC(=O)Cc2c(C(=O)O)n(C)c3ccc(C)cc23)c1	-18.9%
COc1ccc(Cl)cc1NS(=O)(=O)c1cccc(C(=O)NCC(c2ccco2)N2CCCC2)c1 (stereo not drawn)	active: 38.5%

SMILES	inhibition
CCOCCCNC(=O)c1c(NC(=O)Cc2coc3ccc(C)cc23)sc2c1CCC2	5.04%
O=S(=O)(c1cccc(F)c1)N1CCC(Oc2ccc(-n3cnnn3)cc2)CC1	-18.2%
CCc1ccc(S(=O)(=O)c2c(C(=O)c3ccccc3)cnc3ccc(CC)cc23)cc1	23%
COc1ccccc1CN1CCC(CNC(=O)c2cnn(-c3ccc(Cl)cc3)c2C2CCN(C(=O)OC(C)(C)C)CC2)CC1	-7.75%
CC(C)c1ccc(OCC(O)CN2CCN(c3ccc(F)cc3)CC2)cc1 (stereo not drawn)	-13.1%
CCCCNS(=O)(=O)c1ccc2nc(-c3cccnc3)cc(C(=O)NCCOC)c2c1	11.9%
Cc1ccccc1NC(=O)c1ccc(Cl)c(S(=O)(=O)N2CCCCCC2)c1	3.11%
O=C(NCCCc1nc2ccccc2n1Cc1ccc(Cl)cc1Cl)c1ccco1	7.77%
COc1cc(Cl)c(C)cc1NC(=O)Cn1ncc2c3ccccc3n(Cc3ccccc3)c2c1=O	-4.7%
CCc1ccc(CNC(=O)c2c(C)oc3ncn(CC(C)C)c(=O)c23)cc1	-9.31%
COc1ccc(CNC(=O)CCCn2c(=O)c3cccn3c3cccnc32)cc1	13.8%
CCN(CC)CCCNC(=O)CN1N=C(c2ccc(OC)cc2)CCC1=O	24.4%
CCOCCCN(Cc1ccco1)C(=O)c1cc2c(=O)[nH]c3ccc(C)cc3c2s1	3.89%
COCCNC(=O)Cn1c(=O)n(CCCCCC(=O)Nc2ccccc2)c(=O)c2sccc21	8.44%
O=S(=O)(c1ccccc1)c1nnn2c1nc(NCc1ccccc1)c1sccc12	-10.6%
COc1cccc(NC(=O)c2cnc(SCC(=O)N3CCOCC3)n(C)c2=O)c1	20.6%
Cc1ccc(Cl)cc1N1CCN(C(=O)CN2C(=O)CSc3c2c(C)nn3-c2ccccc2)CC1	1.75%
O=C(NCc1cccs1)c1ccc(Cn2c(SCc3ccc(F)cc3)nc3cccnc32)cc1	-11.3%
COc1ccc(-c2cn3c(n2)sc2cc(C(=O)NCCc4ccc(OC)cc4OC)ccc23)cc1	25.2%
CCc1ccc2c(c1)-c1ccccc1S(=O)(=O)N2CC(=O)N1CCCCC1	2.34%
CCCCN(C)CCCNC(=O)Cn1ncc2c3ccccc3n(Cc3cc(C)ccc3C)c2c1=O	-3.53%
CCN(CC)CCCNC(=O)c1nn(-c2ccc(C)cc2)c(=O)c2c1c1ccccc1n2C	18.1%
CCN(Cc1ccccc1)C(=O)c1sc2nc3n(c(=O)c2c1C)CCCC3	-6.8%
CCOc1ccc(CNS(=O)(=O)c2ccc(-c3coc(C)n3)cc2)cc1OC	8.58%

SMILES	inhibition
O=C(CN1CCN(c2ccccc2O)CC1)Nc1ccc2c(c1)CCC2	active: 66.8%
COc1ccccc1CNC(=O)c1cc2c(s1)-c1ccccc1OC2	17.4%
CCC(=O)N1c2ccc(S(=O)(=O)CCC(=O)Nc3ccc(Br)c(C)c3)cc2CC1C (stereo not drawn)	2.27%
CCCn1c(CCCNC(=O)c2ccccc2OC)nc2ccccc21	9.49%
CCOC(=O)C1CCCN(C(=O)c2nn(-c3ccc(C)cc3)c(=O)c3c2c2ccccc2n3C)C1 (stereo not drawn)	0.375%
O=C(/C=C\c1ccccc1)NC1CC(=O)N(c2ccccc2)C1 (stereo not drawn)	-9.93%
Cc1cc(C)c2c(n1)sc1c(=O)n(-c3cc(Cl)ccc3C)nnc12	11.7%
COC(=O)c1ccccc1NC(=O)Cn1c(=O)n(-c2cccc(C(F)(F)F)c2)c(=O)c2c(C)c(C)sc21	-17.2%
CCN(CC)S(=O)(=O)c1ccc2oc(C(=O)NCc3ccccc3OC)c(C)c2c1	-5.46%
Cc1ccc(S(=O)(=O)NCC2CCC(C(=O)NCCc3ccc(Cl)cc3)CC2)cc1 (stereo not drawn)	-13.9%
Cc1ccc(C)c(N2CCN(C(=O)c3cc(S(=O)(=O)N4CCCCCC4)cn3C)CC2)c1	1.55%
COCCCNC(=O)c1ccc(Cn2c(SCc3cccc(C)c3)nc3cccnc32)cc1	-1%
COc1cc(/C=C/c2nc(C#N)c(NC3CCCCC3)o2)cc(OC)c1OC	-0.0581%
COc1ccc(-n2ccnc(NCCc3ccc(S(N)(=O)=O)cc3)c2=O)cc1	7.81%
O=C(/C=C/c1cn(CC(O)CN2CCCCCC2)c2ccccc12)c1ccccc1 (stereo not drawn)	-24.5%
Cc1ccc(CNc2nc3c(S(=O)(=O)c4ccccc4)nnn3c3ccsc23)cc1	-0.553%
COc1ccc(N2C(=O)C(CC(=O)Nc3ccccc3)N(Cc3ccc4c(c3)OCO4)C2=O)cc1 (stereo not drawn)	active: 43%
COc1ccccc1N1CCN(CCCCN2C(=O)C3CCCCN3C2=O)CC1 (stereo not drawn)	active: 94.3%
COc1ccc(-c2nn(C)c3sc(C(=O)N4CCN(c5cccc(C)c5C)CC4)cc23)cc1OC	-4.76%
O=C(CCCn1c(=O)c2cccn2c2cccnc21)NCCc1ccc(Cl)cc1	-2.06%
COc1ccc(CN2C(=O)C(NC(=O)c3ccc(C)cc3)(C(F)(F)F)N=C2c2ccccc2)cc1 (stereo not drawn)	-2.1%
